Assay results published in patent publication US10858425B2, “Pan-ELR+ CXC chemokine antibodies” (Eli Lilly and Company, priority 2013, dated 2020).
Where a chain is given by its changes, count along the chain named.

How the values were obtained:
human CXCL1 (Gro alpha) = biological target: T1, human CXCL1 (Gro alpha) (Homo sapiens, UniProt P09341); assay: Biacore surface plasmon resonance binding to human CXCL1; conditions: 25° C.
T1 sequence (P09341 35-107): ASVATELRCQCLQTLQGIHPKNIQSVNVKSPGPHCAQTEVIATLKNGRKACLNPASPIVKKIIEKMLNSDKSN
Procedure: Biacore 2000 instrument and Biacore 2000 Evaluation Software Version 4.1 are used for surface plasmon resonance analysis. A […] chip is prepared using manufacturer's EDC/NHS amine coupling method. Briefly, the surfaces of all four flow cells are activated by injecting a 1:1 mixture of EDC/NHS for 7 minutes at 10 μL/min. Protein A is diluted to 100 μg/mL in 10 mM acetate, pH 4.5 buffer, and immobilized to achieve approximately 10,000 RU onto all 4 flow cells by 7-minute injection at a flow rate of 10 μL/minute. Unreacted sites are blocked with a 7-minute injection of ethanolamine at 10 μL/minute. Two injections of glycine (pH 1.5) for 30 seconds at 10 μL/minute are used to remove any non-covalently associated protein. Running buffer is HBS-EP+.
Antibody 1 or Antibody 2 is diluted to 2 μg/mL in running buffer, and approximately 400-600 RU is captured in flow cell (Fc). Ligands are diluted from 100 μg/mL to 50 nM in running buffer and then two-fold serially diluted in running buffer to 3.125 nM. Duplicate injections of each ligand concentration are injected at 100 μL/min for 150 seconds followed by a dissociation phase. […] The on-rate (kon) and off-rate (koff) for each ligand are evaluated using a “1:1 (mass transfer) Binding” binding model. The affinity […] is calculated from the binding kinetics according to the relationship: KD=koff/kon.

human CXCL3 = biological target: T2, human CXCL3 (Homo sapiens, UniProt P19876); assay: FLIPR neutralization using HMEC cells expressing human CXCR2, CXCL3; assay type: cell-based; conditions: CXCL3 10 nM; HMEC-huCXCR2 FLIPR
T2 sequence (P19876 35-107): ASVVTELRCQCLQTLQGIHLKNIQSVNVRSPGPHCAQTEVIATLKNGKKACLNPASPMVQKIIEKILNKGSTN
Text: (§1) Since all of the ELR+ CXC chemokines can bind CXCR2 receptor, cells expressing CXCR2 were selected for in vitro studies. HMEC-huCXCR2 is an immortalized human endothelial cell line transduced with retrovirus for expression of human CXCR2 receptor. HMEC cells expressing human CXCR2 are able to induce intracellular Ca^2+ influx in response to human, cynomolgus monkey, rat, and mouse ELR+CXC chemokines. Intracellular Ca^2+ influx can be detected by a Fluorescent Imagine £late Reader (FLIPR). Chemokine neutralization should therefore also neutralize intracellular Ca^2+ influx induced by these chemokines.
(§2) HMEC-huCXCR2 is maintained in MCDB 31 medium supplemented with 10% fetal bovine serum, 2× GlutaMax, 1× non-essential amino acids, 1 μg/mL hydrocortisone, 10 ng/mL human Epidermal Growth Factor, and 0.4 μg/mL puromycin at 37° C. in 5% CO2. […] A cell plate and a ligand-antibody plate are loaded into a Fluorescent Imagine Plate Reader (FLIPR-3, Molecular Devices) programmed to transfer 50 μL of ligand-antibody to wells of the cell plate. Fluorescence is recorded every second for 90 seconds. The change in fluorescence (DRFU) is calculated from images 10 to 90. DRFU versus log (antibody concentration) is plotted and IC50 values are determined by nonlinear regression using Graph Pad Prism. […] Data are expressed as the mean of replicates. […]

human CXCL2 = biological target: T3, human CXCL2 (Homo sapiens, UniProt P19875); assay: FLIPR neutralization using HMEC cells expressing human CXCR2, CXCL2; assay type: cell-based; conditions: CXCL2 10 nM; HMEC-huCXCR2 FLIPR
T3 sequence (P19875 35-107): T1 sequence (P09341 35-107) with S2P, V3L, P20L, N27K, R48Q, I58M, N68K, S69N, D70G
Text: as §1, §2

- kon (human CXCL1 (Gro alpha)): 9.30 ± 0.45 (1/Ms) × 10^5
- IC50 (human CXCL3): 0.731 (±0.187) ug/mL
- IC50 (human CXCL2): 1.281 (±0.449) ug/mL
B1: Antibody 1: antibody with heavy chain SEQ ID NO: 1 and light chain SEQ ID NO: 3, expressed in NSO cells (antibody)
heavy: QVQLVQSGAEVKKPGASVKVSCKASGYEFTSYWIHWVRQAPGQGLEWMGNISPNSGSANYNEKFKSRVTMTRDTSTSTVYMELSSLRSEDTAVYYCAREGPYSYYPSREYYGSDLWGQGTLVTVSSASTKGPSVFPLAPCSRSTSESTAALGCLVKDYFPEPVTVSWNSGALTSGVHTFPAVLQSSGLYSLSSVVTVPSSSLGTKTYTCNVDHKPSNTKVDKRV[human IgG4 Fc with S228P (EU numbers) not spelt out]
light: EIVLTQSPATLSLSPGERATLSCRASQSISNNLHWYQQKPGQAPRLLIYYTSRSVSGIPARFSGSGSGTDFTLTISSLEPEDFAVYYCGQNNEWPEVFGGGTKVEIKRTVAAPSVFIFPPSDEQLKSGTASVVCLLNNFYPREAKVQWKVDNALQSGNSQESVTEQDSKDSTYSLSSTLTLSKADYEKHKVYACEVTHQGLSSPVTKSFNRGEC
